Results as given in patent US20240270821A1, “GIP/GLP1/GCG TRI-RECEPTOR AGONISTS AND USES THEREOF” (priority 2023, published 2024).
Read-outs that look alike come from different tables or passages of the source. Not every detail of the peptide structures is certain; ends, links or a residue may be inferred. At least one structure is not confirmed: it was looked up by name or label, or the drawing left a doubt. Starred links: 1 amine or outer side, 2 acyl side, 3 side chain; linkers in the order of their positions; H or OH if unused. Non-standard residues stand in square brackets, D forms with d. Groups on a side chain read outwards from the residue. No end group written: not given here. *: point of attachment. C18 diacid = O=C(O)CCCCCCCCCCCCCCCCC(=O)*; αMePhe(2-F) = C[C@](N)(Cc1ccccc1F)C(=O)O; γGlu = O=C(O)[C@H](CCC(=O)[*:2])N[*:1]; αMe4Pal = C[C@](N)(Cc1ccncc1)C(=O)O; αMeY = C[C@](N)(Cc1ccc(O)cc1)C(=O)O; 4Pal = N[C@@H](Cc1ccncc1)C(=O)O; αMeL = CC(C)C[C@](C)(N)C(=O)O; αMeS = C[C@](N)(CO)C(=O)O; Iva = CC[C@](C)(N)C(=O)O; Orn = NCCC[C@H](N)C(=O)O; AEEA = NCCOCCOCC(=O)O; Aib = CC(C)(N)C(=O)O

How the values were obtained:
Type in all cases: cell-based
hGIPR [1] = target: T1, hGIPR (Homo sapiens, UniProt P48546); experiment: Functional cAMP activity in the presence of 1% HSA; conditions: geometric mean of relative EC50, read-out: cAMP Rel EC50, hGIPR
T1 sequence (P48546 22-466): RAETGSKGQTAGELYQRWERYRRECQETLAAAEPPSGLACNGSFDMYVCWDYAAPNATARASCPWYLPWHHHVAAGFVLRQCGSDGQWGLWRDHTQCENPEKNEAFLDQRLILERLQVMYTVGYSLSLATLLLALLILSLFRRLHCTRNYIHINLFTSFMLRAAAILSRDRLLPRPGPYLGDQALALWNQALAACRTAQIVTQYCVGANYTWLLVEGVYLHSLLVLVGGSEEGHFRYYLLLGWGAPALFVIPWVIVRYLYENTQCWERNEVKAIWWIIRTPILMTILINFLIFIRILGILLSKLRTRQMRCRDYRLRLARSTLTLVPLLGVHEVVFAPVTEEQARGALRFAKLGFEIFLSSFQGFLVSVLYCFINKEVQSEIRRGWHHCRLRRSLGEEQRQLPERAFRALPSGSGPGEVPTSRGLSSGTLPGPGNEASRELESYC

hGLP-1R [2] = target: T2, hGLP-1R (Homo sapiens, UniProt P43220); experiment: Functional cAMP activity in the presence of 1% HSA; conditions: geometric mean of relative EC50, read-out: cAMP Rel EC50, hGLP-1R
T2 sequence (P43220 24-463): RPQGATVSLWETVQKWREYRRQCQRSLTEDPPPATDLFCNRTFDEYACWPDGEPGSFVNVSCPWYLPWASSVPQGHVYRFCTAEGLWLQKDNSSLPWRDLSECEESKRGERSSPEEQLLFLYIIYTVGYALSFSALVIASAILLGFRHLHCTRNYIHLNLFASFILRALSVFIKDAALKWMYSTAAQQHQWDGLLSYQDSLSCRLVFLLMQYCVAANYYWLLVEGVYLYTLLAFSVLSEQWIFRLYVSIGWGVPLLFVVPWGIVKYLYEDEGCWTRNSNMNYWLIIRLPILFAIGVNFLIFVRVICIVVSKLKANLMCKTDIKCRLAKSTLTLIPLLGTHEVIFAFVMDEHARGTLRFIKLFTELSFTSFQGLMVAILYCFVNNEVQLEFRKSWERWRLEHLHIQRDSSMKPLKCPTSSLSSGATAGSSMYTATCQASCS

human GcgR = human GcgR (Homo sapiens, UniProt P47871); experiment: Functional cAMP activity in the presence of 1% HSA; conditions: geometric mean of relative EC50, read-out: cAMP Rel EC50, hGcgR
human GcgR, sequence (P47871 26-477): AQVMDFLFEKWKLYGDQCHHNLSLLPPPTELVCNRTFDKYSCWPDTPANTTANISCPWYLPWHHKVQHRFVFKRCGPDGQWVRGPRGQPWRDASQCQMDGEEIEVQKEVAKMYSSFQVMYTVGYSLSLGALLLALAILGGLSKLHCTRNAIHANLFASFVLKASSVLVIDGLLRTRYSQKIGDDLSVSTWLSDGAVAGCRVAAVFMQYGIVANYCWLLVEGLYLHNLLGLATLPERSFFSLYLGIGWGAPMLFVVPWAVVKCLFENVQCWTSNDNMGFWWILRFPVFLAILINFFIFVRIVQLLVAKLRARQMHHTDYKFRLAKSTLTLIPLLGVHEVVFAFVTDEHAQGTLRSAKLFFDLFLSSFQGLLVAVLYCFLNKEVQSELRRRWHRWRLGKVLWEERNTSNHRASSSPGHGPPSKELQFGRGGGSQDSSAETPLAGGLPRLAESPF

hGIPR [3] = target: T1, hGIPR; experiment: Functional cAMP activation in the presence of 0.1% casein (no HSA); conditions: in the presence of 0.1% casein (no HSA)
hGLP-1R [4] = target: T2, hGLP-1R; experiment: as above; conditions: in the presence of 0.1% casein (no HSA)
hGcgR = hGcgR (Homo sapiens, UniProt P47871); experiment: as above; conditions: in the presence of 0.1% casein (no HSA)
hGcgR, sequence (P47871 26-477): as above

human GLP1-R = human GLP1-R (Homo sapiens, UniProt P43220); experiment: GLP1-R internalization assay in HEK293 cells; conditions: HEK293 cells expressing SNAP-GLP-1R; read-out: GLP1R Internalization EC50
human GLP1-R, sequence (P43220 24-463): as the sequence (P43220 24-463) above

[5] = HEK-293 clonal cells expressing hGIPR, in the presence of 1% HSA
[6] = HEK-293 clonal cells expressing hGLP-1R, in the presence of 1% HSA
[7] = HEK-293 clonal cells expressing hGcgR, in the presence of 1% HSA
[8] = geometric mean, read-out: Relative cAMP EC50, hGIPR
[9] = geometric mean, read-out: Relative cAMP EC50, hGLP-1R
[10] = geometric mean, read-out: Relative cAMP EC50, hGcgR
[11] = HEK-293 clonal cell line, 1% HSA
[12] = geometric mean of relative EC50
[13] = HEK-293 clonal cell line, in the presence of 1% HSA

Compound | EC50 (hGIPR [1]; [5]) [nM] | EC50 (hGLP-1R [2]; [6]) [nM] | EC50 (human GcgR; [7]) [nM] | EC50 (hGIPR [3]; [8]) [nM] | EC50 (hGLP-1R [4]; [9]) [nM] | EC50 (hGcgR; [10]) [nM] | EC50 (human GLP1-R) [nM] | EC50 (hGIPR [1]; [11]) [nM] | EC50 (hGLP-1R [2]; [11]) [nM] | EC50 (human GcgR; [11]) [nM] | EC50 (hGIPR [3]; [12]) [nM] | EC50 (hGLP-1R [4]; [12]) [nM] | EC50 (hGcgR; [12]) [nM] | EC50 (hGIPR [1]; [13]) [nM] | EC50 (hGLP-1R [2]; [13]) [nM] | EC50 (human GcgR; [13]) [nM]
CC[C@H](C)[C@H](NC(=O)[C@H](Cc1ccccc1)NC(=O)[C@H](C)NC(=O)C(C)(C)NC(=O)[C@H](CCC(N)=O)NC(=O)[C@H](C)NC(=O)[C@H](CCCCNC(=O)COCCOCCNC(=O)CC[C@H](NC(=O)CCCCCCCCCCCCCCCCC(=O)O)C(=O)O)NC(=O)[C@H](CCCCN)NC(=O)[C@H](CC(=O)O)NC(=O)[C@H](CC(C)C)NC(=O)[C@](C)(CC(C)C)NC(=O)[C@H](CCCN)NC(=O)[C@H](CO)NC(=O)[C@H](Cc1ccccc1)NC(=O)[C@H](CC(=O)O)NC(=O)[C@H](CO)NC(=O)[C@@H](NC(=O)[C@H](Cc1ccccc1)NC(=O)[C@@H](NC(=O)CNC(=O)[C@H](CCC(N)=O)NC(=O)C(C)(C)NC(=O)[C@@H](N)Cc1ccc(O)cc1)[C@@H](C)O)[C@@H](C)O)C(=O)N[C@@H](CCC(=O)O)C(=O)N[C@@H](Cc1c[nH]c2ccccc12)C(=O)N[C@@H](CC(C)C)C(=O)N[C@@H](CC(C)C)C(=O)N[C@@H](CCC(=O)O)C(=O)NCC(=O)NCC(=O)N1CCC[C@H]1C(=O)N[C@@H](CO)C(=O)N[C@@H](CO)C(=O)NCC(=O)N[C@@H](C)C(=O)N1C[C@H](O)C[C@H]1C(=O)N1CCC[C@H]1C(=O)N1CCC[C@H]1C(=O)N[C@@H](CO)C(=O)NCC(=O)N[C@@H](CCC(=O)O)C(N)=O [Example 136] | 32.9 | 625 | 960 | 0.221 | 3.8 | 8.73 | 36.1 | – | – | – | – | – | – | – | – | –
CC[C@H](C)[C@H](NC(=O)[C@H](Cc1ccccc1)NC(=O)[C@H](C)NC(=O)C(C)(C)NC(=O)[C@H](CCC(N)=O)NC(=O)[C@H](C)NC(=O)[C@H](CCCCNC(=O)COCCOCCNC(=O)CC[C@H](NC(=O)CCCCCCCCCCCCCCCCC(=O)O)C(=O)O)NC(=O)[C@H](CCCCN)NC(=O)[C@H](CC(=O)O)NC(=O)[C@H](CC(C)C)NC(=O)[C@](C)(CC(C)C)NC(=O)[C@H](CCCN)NC(=O)[C@H](CO)NC(=O)[C@H](Cc1ccccc1)NC(=O)[C@H](CC(=O)O)NC(=O)[C@H](CO)NC(=O)[C@@H](NC(=O)[C@H](Cc1ccccc1)NC(=O)[C@@H](NC(=O)CNC(=O)[C@H](CCC(N)=O)NC(=O)C(C)(C)NC(=O)[C@@H](N)Cc1ccc(O)cc1)[C@@H](C)O)[C@@H](C)O)C(=O)N[C@@H](CCC(=O)O)C(=O)N[C@@H](Cc1c[nH]c2ccccc12)C(=O)N[C@@H](CC(C)C)C(=O)N[C@@H](CC(C)C)C(=O)N[C@@H](CCC(=O)O)C(=O)NCC(=O)NCC(=O)N1CCC[C@H]1C(=O)N[C@@H](CO)C(=O)N[C@@H](CO)C(=O)NCC(=O)N[C@@H](C)C(=O)N1CCC[C@H]1C(=O)N1C[C@H](O)C[C@H]1C(=O)N1CCC[C@H]1C(=O)N[C@@H](CO)C(=O)NCC(=O)N[C@@H](CCC(=O)O)C(N)=O [Example 137] | 23.7 | 447 | 905 | 0.269 | 3.18 | 4.43 | 60.2 | – | – | – | – | – | – | – | – | –
CC[C@H](C)[C@H](NC(=O)[C@H](Cc1ccccc1)NC(=O)[C@H](C)NC(=O)C(C)(C)NC(=O)[C@H](CCC(N)=O)NC(=O)[C@H](C)NC(=O)[C@H](CCCCNC(=O)COCCOCCNC(=O)CC[C@H](NC(=O)CCCCCCCCCCCCCCCCC(=O)O)C(=O)O)NC(=O)[C@H](CCCCN)NC(=O)[C@H](CC(=O)O)NC(=O)[C@H](CC(C)C)NC(=O)[C@](C)(CC(C)C)NC(=O)[C@H](CCCN)NC(=O)[C@H](CO)NC(=O)[C@H](Cc1ccccc1)NC(=O)[C@H](CC(=O)O)NC(=O)[C@H](CO)NC(=O)[C@@H](NC(=O)[C@H](Cc1ccccc1)NC(=O)[C@@H](NC(=O)CNC(=O)[C@H](CCC(N)=O)NC(=O)C(C)(C)NC(=O)[C@@H](N)Cc1ccc(O)cc1)[C@@H](C)O)[C@@H](C)O)C(=O)N[C@@H](CCC(=O)O)C(=O)N[C@@H](Cc1ccc(O)cc1)C(=O)N[C@@H](CC(C)C)C(=O)N[C@@H](CC(C)C)C(=O)N[C@@H](CCC(=O)O)C(=O)N[C@H](C)C(=O)NCC(=O)N1CCC[C@H]1C(=O)N[C@@H](CO)C(=O)N[C@@H](CO)C(=O)NCC(=O)N[C@@H](C)C(=O)N1CCC[C@H]1C(=O)N1CCC[C@H]1C(=O)N1CCC[C@H]1C(=O)N[C@@H](CO)C(=O)NCC(=O)N[C@H](C(=O)O)[C@@H](C)O [Example 213] | 22.9 | 327 | 429 | 0.124 | 1.9 | 3.61 | 85.9 | – | – | – | – | – | – | – | – | –
H-Y[Aib]QGTFTSDFS[Orn][αMeL]LDKK([AEEA-γGlu-C18 diacid])AQ[Aib]AFIEYLLE[dA]GPSSGAPPPSGS [Example 212] | 32.3 | 360 | 324 | 0.13 | 1.35 | 3.74 | 79.7 | – | – | – | – | – | – | – | – | –
H-Y[Aib]QGT[αMePhe(2-F)]TSD[4Pal][αMeS]I[αMeL]LD[Orn]K([AEEA-γGlu-C18 diacid])AA[Aib]EFI[dE][αMeY]LIEGGPSSGAPPPSGTEE-NH2 [Example 705] | – | – | – | – | – | – | – | 1.15 | 33.7 | 234 | 0.0128 | 0.305 | 1.7 | – | – | –
Y[Aib]QGTFTSD[4Pal]SQ[αMeL]LDKK([AEEA-γGlu-C18 diacid])AQ[αMe4Pal]AFIEYLIE[Aib]GPSSGAPPPSGS-OH [Example 885] | – | – | – | 0.149 | 3.29 | 2.42 | – | – | – | – | – | – | – | 19.7 | 326 | 574
Y[Aib]QGTFTSD[4Pal]SQ[αMeL]LDKK([γGlu-dE-dE-C18 diacid])AQ[αMe4Pal]AFIEYLIE[Aib]GPSSGAPPPSGS-NH2 [Example 922] | – | – | – | 0.112 | 6.77 | 8.49 | – | – | – | – | – | – | – | 6.39 | 357 | 1170
Y[Aib]QGTFTSD[4Pal]SQ[αMeL]LD[Orn]K([dE-γGlu-C18 diacid])AQ[αMe4Pal]AFIE[αMeY]LIA[Aib]GPSSGAPPPSGSEE-NH2 [Example 1114] | – | – | – | 0.0478 | 0.84 | 11.5 | – | – | – | – | – | – | – | 2.34 | 39 | 514
Y[Aib]QGTFTSD[4Pal]SQ[αMeL]LD[Orn]K([dE-γGlu-C18 diacid])AQ[αMe4Pal]AFIE[αMeY]LIEGGPSSGAPPPSGSEE-NH2 [Example 1070] | – | – | – | 0.167 | 1.54 | 20.2 | – | – | – | – | – | – | – | 27.3 | 321 | 1940
Y[Aib]QGTFTSD[4Pal]SQ[αMeL]LD[Orn]K([dE-γGlu-C18 diacid])AQ[αMe4Pal]AFIE[αMeY]LIEGGPSSGAPPPSGSEEE-NH2 [Example 1071] | – | – | – | 0.261 | 2.06 | 23.5 | – | – | – | – | – | – | – | 40.2 | 425 | 2990
Y[Aib]QGTFTSD[4Pal]SQ[αMeL]LD[Orn]K([dE-γGlu-C18 diacid])AQ[αMe4Pal]AFIE[αMeY]LIE[Aib]GPSSGAPPPSGSEE-NH2 [Example 1112] | – | – | – | 0.254 | 0.957 | 10.7 | – | – | – | – | – | – | – | 8.02 | 68.3 | 588
Y[Aib]QGTFTSD[4Pal]SQ[αMeL]LD[Orn]K([dE-γGlu-C18 diacid])AQ[αMe4Pal]AFIQ[αMeY]LIEGGPSSGAPPPSGSEE-NH2 [Example 1072] | – | – | – | 0.157 | 0.889 | 10.5 | – | – | – | – | – | – | – | 9.94 | 95.1 | 914
Y[Aib]QGTFTSD[4Pal]S[Orn][αMeL]LD[Orn]K([dE-γGlu-C18 diacid])AQ[Aib]AFIE[αMeY]LLEGGPSSGAPPPSGSEE-NH2 [Example 1065] | – | – | – | 0.293 | 11.6 | 19.7 | – | – | – | – | – | – | – | 39.1 | 2290 | 3080
Y[Aib]QGTFTSD[4Pal][αMeS]Q[αMeL]LD[Orn]K([dE-γGlu-C18 diacid])AQ[Iva]QFIQ[αMeY]LIE[Aib]GPSSGAPPPSGGGE-NH2 [Example 1137] | – | – | – | 0.0334 | 0.582 | 14.2 | – | – | – | – | – | – | – | 2.05 | 36.2 | 663
